Source: article PMC4336329 (PLoS ONE, 2015)
Out of some 310,000 compounds screened, about 2,200 (0.71%) showed an effect of 50% or more. The effect is printed as a negative number. The list shows a part of the results.

biological target: human ether-à-go-go-related gene (hERG) potassium channel (human, UniProt Q12809); experiment: primary screen, population patch clamp on CHO cells stably expressing hERG
Sequence (Q12809 whole entry, looked up): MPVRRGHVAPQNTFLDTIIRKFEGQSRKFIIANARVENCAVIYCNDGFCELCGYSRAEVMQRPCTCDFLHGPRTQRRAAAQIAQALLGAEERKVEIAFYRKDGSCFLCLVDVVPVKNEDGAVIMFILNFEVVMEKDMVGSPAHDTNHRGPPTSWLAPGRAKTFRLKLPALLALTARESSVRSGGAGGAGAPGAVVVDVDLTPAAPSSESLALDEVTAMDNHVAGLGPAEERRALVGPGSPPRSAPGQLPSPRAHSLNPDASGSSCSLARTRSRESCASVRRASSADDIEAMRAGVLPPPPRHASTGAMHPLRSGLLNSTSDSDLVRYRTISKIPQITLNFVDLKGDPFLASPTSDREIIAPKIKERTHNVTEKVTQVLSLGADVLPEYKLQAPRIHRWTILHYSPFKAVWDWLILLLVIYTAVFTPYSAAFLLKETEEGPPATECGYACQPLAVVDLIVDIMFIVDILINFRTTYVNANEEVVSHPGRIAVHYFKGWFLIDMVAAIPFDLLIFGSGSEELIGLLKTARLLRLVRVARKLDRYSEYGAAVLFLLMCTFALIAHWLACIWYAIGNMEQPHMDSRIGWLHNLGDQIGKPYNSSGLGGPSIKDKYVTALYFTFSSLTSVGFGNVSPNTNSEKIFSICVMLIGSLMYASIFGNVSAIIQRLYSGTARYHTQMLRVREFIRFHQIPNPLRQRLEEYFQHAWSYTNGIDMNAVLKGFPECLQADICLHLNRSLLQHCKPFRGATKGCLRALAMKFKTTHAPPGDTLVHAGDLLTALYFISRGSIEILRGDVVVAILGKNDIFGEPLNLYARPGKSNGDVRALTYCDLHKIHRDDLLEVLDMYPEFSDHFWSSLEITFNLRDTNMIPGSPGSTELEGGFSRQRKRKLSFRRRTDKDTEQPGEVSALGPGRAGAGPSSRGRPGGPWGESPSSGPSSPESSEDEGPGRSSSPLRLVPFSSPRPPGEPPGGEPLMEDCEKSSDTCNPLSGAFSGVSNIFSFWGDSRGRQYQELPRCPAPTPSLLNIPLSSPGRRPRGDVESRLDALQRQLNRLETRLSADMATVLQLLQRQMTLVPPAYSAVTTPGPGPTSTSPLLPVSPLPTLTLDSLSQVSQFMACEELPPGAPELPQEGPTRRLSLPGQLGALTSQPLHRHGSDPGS

| Structure (SMILES) | hERG current change (%, negative = inhibition) at 1uM [%] |
| --- | --- |
| COc1ccccc1NS(=O)(=O)c1cccc(C(=O)NCC(c2ccco2)N2CCCC2)c1 (centres unmarked) | 4.17 |
| Cc1cc2c(cc1C)/C(=N/NC(=O)c1ccccn1)CCC2 | 9.3 |
| Cc1cc(C(F)(F)F)nc(SCC(=O)c2cccc([N+](=O)[O-])c2)n1 | 8.12 |
| O=C(N/N=C/c1c(O)n(-c2ccc(Cl)cn2)c(=O)c2ccccc12)C1CC1 | 11.3 |
| COc1ccc(CCn2c(C)ccc2C)cc1OC | 12 |
| O=C(NCC(c1ccco1)N1CCCCC1)c1ccc(OCc2ccccc2)cc1 (centres unmarked) | 7.85 |
| Cc1cccc(/C(N)=N/OC(=O)c2cccc3ccccc23)c1 | 15.3 |
| CCN(CC)c1nc(N2CCOCC2)nc2ccccc12.Cl | -24.1 |
| COc1ccccc1CN1CCNC(=O)C1CC(=O)NCC1CCOCC1 (centres unmarked) | 2.5 |
| Cc1cc(Cn2nc(-c3ccccc3)cc2C(=O)NCc2cccc(C(F)(F)F)c2)on1 | 15.7 |
| CC(=O)CCS(=O)(=O)c1ccc(C)c(C)c1 | 5.75 |
| Cc1cc(C)c2c(N)c(C(=O)Nc3ccccc3F)sc2n1 | 16.3 |
| COc1ccc(C(=O)C2CCCN(C3Cc4ccccc4C3)C2)cc1OC (centres unmarked) | -33.2 |
| CC1=C(C(=O)OC2CCCCCCC2)C(c2ccc(O)cc2)NC(=O)N1 (centres unmarked) | 15 |
| Cc1ccc(NC(=O)CC2SC(=NCC3CCCO3)NC2=O)cc1Cl (centres unmarked) | -0.329 |
| Cc1cc(=O)oc2c3c(cc(OCC(=O)Nc4cccnc4)c12)OC(C)(C)CC3 | 18.4 |
| Cc1cc(=O)n2[nH]c(CCC(=O)O)nc2n1 | 13.9 |
| COc1ccc(/C=C/c2c(-c3cccc(C)c3)oc3ccc(N4CCOCC4)cc23)cc1 | 18.5 |
| CC/C(=N\Nc1ccccc1[N+](=O)[O-])c1ccc(O)cc1 | 16.6 |
| CCCOC(=O)Cc1c(O)c2ccccc2[nH]c1=O | 13.6 |
| Cc1cccc(NC(=O)c2ccccc2[N+](=O)[O-])n1 | 13.1 |
| O=C(c1ccccc1)N1CCCC(c2nc3c(nnn3Cc3ccccc3)c(=O)[nH]2)C1 (centres unmarked) | 4.03 |
| CCCc1nc2oc3c(NCC4CCCO4)ncnc3c2c2c1COC(C)(C)C2 (centres unmarked) | -1.47 |

| Structure (SMILES) | hERG current change (%, negative = inhibition) at 1uM [%] |
| --- | --- |
| CC(C)C1Nc2ccc(S(=O)(=O)N3CCOCC3)cc2NC1=O (centres unmarked) | 13.5 |
| O=C1c2ccccc2NC(c2ccc(Br)s2)N1O (centres unmarked) | 9.82 |
| CS(=O)(=O)N(CC(=O)Nc1ccc(S(=O)(=O)N2CCCC2)cc1)c1ccccc1 | 19 |
| O=C(NCCNC(=O)c1ccccc1Cl)c1ccco1 | 18.9 |
| Nc1c(-c2ccc(Cl)cc2)cnn1C1CCS(=O)(=O)C1 (centres unmarked) | 0.195 |
| O=C(CSc1nccc(=O)[nH]1)NN(c1ccccc1)c1ccccc1 | 9.88 |
| CCOc1ccc(CC(=O)N2N=C(C)CC2(O)C(F)(F)F)cc1 (centres unmarked) | 6.72 |
| CC(=NCCCO)c1c(O)n(Cc2ccccc2)c(=O)[nH]c1=O | 10.2 |
| CCN(CC)CCCN1C(=O)c2oc3ccccc3c(=O)c2C1c1cccs1 (centres unmarked) | 18.7 |
| COc1cc(/C=C2/C(=O)NN(c3ccccc3)C2=O)cc(Br)c1O | 13.9 |
| CCCn1c(Sc2nnnn2-c2ccccc2)n[nH]c1=O | 9.94 |
| Cc1ccc(/C=C/C(=O)O)cc1S(=O)(=O)N(CCO)CCO | 10.6 |
| O=S(=O)(NC1CC2CCC1C2)c1ccc(Cl)cc1 (centres unmarked) | 15.8 |
| COc1cccc(-n2cnc3sc(C)cc3c2=O)c1 | 5.64 |
| CN(C(=O)COC(=O)C1CCN(S(=O)(=O)c2c(Cl)cccc2Cl)CC1)C1CCS(=O)(=O)C1 (centres unmarked) | 9.29 |
| Cc1ccc(N2N=C(c3ccc(Br)cc3)CCC2=O)cc1 | 10.3 |
| O=C1c2ccccc2NC(c2ccccc2)N1Cc1ccco1 (centres unmarked) | 3.77 |
| COc1ccc(/C=N/NC(=S)Nc2ccccc2)cc1COc1ccc(F)cc1F | 13.5 |
| COC(=O)c1cc2oc3ccccc3c2n1CC(=O)Nc1ccccc1OC | 8.98 |
| Cc1c(NC(=O)COC(=O)C2(c3ccc(F)cc3)CCCC2)c(=O)n(-c2ccccc2)n1C | 2.46 |
| O=C(O)CCc1ccc(-c2ccc(Cl)cc2)n1CC(=O)Nc1ccccc1 | 15.7 |
| O=C(COC(=O)c1ccc(Br)o1)Nc1ncc([N+](=O)[O-])s1 | 11.1 |
| Cc1ccccc1-c1nc(-c2ccc(Br)o2)no1 | 5.73 |

| Structure (SMILES) | hERG current change (%, negative = inhibition) at 1uM [%] |
| --- | --- |
| O=C(O)c1cccc2cc(-c3ccccc3)oc(=O)c12 | 13.5 |
| CCOc1ccc(NC(=O)C2CCN(S(=O)(=O)c3c(C)n[nH]c3C)CC2)cc1 | 2.16 |
| O=C(CSc1nnnn1-c1ccc(F)cc1)c1ccc(O)c(O)c1 | -12 |
| O=C(CCc1ccccc1)NNC(=O)Nc1ccccc1 | 8.86 |
| CC(NS(=O)(=O)/C=C/c1ccccc1)c1ccccc1 (centres unmarked) | 8.19 |
| Cc1cc(C)nc(N(C#N)CCOc2ccc(Cl)cc2)n1 | 10.5 |
| CC(C)(C)NC(=O)NC(=O)CN1CCN(S(=O)(=O)/C=C/c2ccccc2)CC1 | 15.2 |
| Cc1nnc(SCc2ccc(C(=O)O)cc2)s1 | 0.773 |
| COc1cccc(C(=O)CC(C(=O)O)c2ccc(Cl)cc2)c1 (centres unmarked) | 15.4 |
| CS(=O)(=O)c1[nH]nc(-c2ccccc2Cl)c1C#N | 11.5 |
| CC(C)OC(=O)C1C(=O)CC(C)(O)C(C(=O)OC(C)C)C1c1ccc([N+](=O)[O-])cc1 (centres unmarked) | 7.14 |
| Cc1ccc(Sc2ncccc2N)cc1 | 13.3 |
| CC(=O)N/C(N)=N/c1nc2cc([N+](=O)[O-])ccc2o1 | 12.4 |
| COc1nc(-c2cccs2)cc(-c2ccc(C)cc2)c1C#N | 20.2 |
| NC(=O)c1ccc[n+](Cc2ccc(-c3ccccc3)cc2)c1.[Cl-] | 9.77 |
| O=C(NCCCN1CCOCC1)C1CC(=O)N(C2CCCCC2)C1 (centres unmarked) | 11 |
| CCC(=O)N1CCc2cc(S(=O)(=O)NCCC(=O)Nc3cc(C)cc(C)c3)ccc21 | 8.68 |
| COc1ccc(C(C)NC(=O)C23CC4CC(CC(C4)C2)C3)cc1OC (centres unmarked) | 12.4 |
| Cc1cc(C(=O)CSc2nnc(-c3ccc(OC(F)F)cc3)o2)c(C)n1Cc1cccs1 | 24.7 |
| CCC(CC)C1=NN2C(=N)/C(=C\c3cc(C)n(-c4cccc(C)c4)c3C)C(=O)N=C2S1 | 5.59 |
| CCOC(=O)C(=O)Nc1ncc(Cl)s1 | 11.1 |
| CCCn1c(=N)n(CC(O)c2ccco2)c2ccccc21.Cl (centres unmarked) | -13.8 |
| CC(=O)Nc1ccc(S(=O)(=O)N2CCC(N(C)CCC(C)C)CC2)cc1.Cl | -15.2 |

| Structure (SMILES) | hERG current change (%, negative = inhibition) at 1uM [%] |
| --- | --- |
| COc1ccc2cc(CN(C(=O)Nc3ccccc3)C3CCCC3)c(=O)[nH]c2c1 | -19.5 |
| CCOc1ccc(C(=O)CN2CCN(S(=O)(=O)c3ccc(F)cc3)CC2)cc1 | -13.8 |
| Cc1cc(NC(=O)c2c(-c3c(Cl)cccc3Cl)noc2C)n(C)n1 | 14.7 |
| C=CCN1C(=O)N(c2ccc(F)cc2)C(=O)C1CC(=O)Nc1ccc(Cl)cc1 (centres unmarked) | 16.9 |
| CC(C)c1ccc(CC(NC(=O)c2ccccc2)C(=O)NCC(=O)O)cc1 (centres unmarked) | 9.01 |
| O=S(=O)(NC(=S)NC1CCCCC1)c1ccc(Br)cc1 | 11.1 |
| CS(=O)(=O)c1ccc(C(=O)N2CCN(Cc3ccccc3)CC2)cc1 | -20.6 |
| CCCC(=O)n1nc(-c2ccc(OC)cc2)nc1N | 0.27 |
| CCOC(=O)c1ccc2c(c1)nc(SCc1cn3ccsc3n1)n2CC | -2.03 |
| COc1ccc2[nH]c(=O)c(CN(CCN(C)C)C(=O)NCc3ccccc3)cc2c1 | 13.8 |
| Cc1c(NC(=O)c2ccc3c4c(cccc24)CC3)c(=O)n(-c2ccccc2)n1C | 15.3 |
| COc1ccc(C(=O)NNC(=O)c2ccccc2[N+](=O)[O-])cc1[N+](=O)[O-] | -0.396 |
| COC(=O)CN1C(=O)Nc2ccc(Cl)cc2C1c1ccccc1 (centres unmarked) | 22.6 |
| O=C1NC(=S)N(C(=O)c2ccc(F)cc2)/C1=C/c1cccnc1 | 6.14 |
| CN(C)C(=O)c1cn(-c2ccccc2)nc1-c1cc2ccccc2oc1=O | -5.37 |
| C/C(N)=C(/C#N)C(=O)COC(=O)[C@@H](NC(=O)c1ccccc1Cl)C(C)C | 7.48 |
| COc1ccc(OC)c(NC(=O)CSc2ccc3nnc(-c4cccnc4)n3n2)c1 | -19.3 |
| O=C(OCc1nnc(-c2ccccc2)o1)c1cccnc1Cl | 9.52 |
| CN(C)CCN(C(=O)CN1C(=O)c2ccccc2C1=O)c1nc2cc3c(cc2s1)OCO3.Cl | 7.04 |
| COc1ccccc1NC(=O)NCc1ccc(C)n1C | 15.5 |
